Each structure is given as a SMILES string. Among all 52,000 compounds or so, about 4,300 (8.3%) were called active. Rule as the data show it: active = survival mostly below about 52% (no sharp cut-off); inactive = mostly above about 56%. This is one part of the list.

This assay deals with DeltatarO mutant. The experiment in a line: S. aureus survival, RN4220 and DeltatarO strains – OD600, teichoic acid synthesis inhibitors, primary screen (AID 463173). The conditions noted are these: S. aureus RN4220 wild type/DeltatarO growth, OD600, 18 h, stronger effect = lower value, screened at 18.75 µg/mL (by protocol).
In the case of `Cc1ccc(S(=O)(=O)NC2(C(F)(F)F)NC(=O)N(CCc3ccccc3)C2=O)cc1` (configuration not stated), the survival was inactive: 62%. The value for `C=CCn1c(SC(CCO)C(=O)NCc2ccco2)nc2sc3c(c2c1=O)CCC3` (configuration not stated) was inactive: 89%. Consider `CCc1cc2cc(C)cc(C)c2nc1Cl`, for which the survival was inactive: 68%. For the compound `CSc1nc2c(c(=O)[nH]1)C(c1cccc(F)c1F)CC(=O)N2` (configuration not stated), the survival is inactive: 111%. As for `NS(=O)(=O)c1ccc(CCNc2nccn(-c3cccc(C(F)(F)F)c3)c2=O)cc1`, the survival is inactive: 102%.

`O=S(=O)(Nc1cc(F)ccc1F)c1ccc2[nH]c3c(c2c1)CCCC3`: the survival is inactive: 84%. As for `CC(C)(C)C(=O)Nc1ccc2nc(SCC(=O)N3CCOCC3)sc2c1`, the figure is inactive: 81%; as for `COc1cccc(CNn2cnnc2)c1O`, inactive: 103%; as for `CC(C)c1ccc(NC(=O)CS(=O)(=O)c2cccc3nsnc23)cc1`, inactive: 78%.

For `COc1cccc(CNC(=O)c2ccc3c(c2)c(C)c(C)n3Cc2ccccc2)c1OC`, the survival is inactive: 94%. The value for `CCCCN(CCCC)CCNC(=O)Cn1nc(C)n2c(cc3sccc32)c1=O` was inactive: 95%. As for `CCOC(=O)c1cc2c(=O)n3ccccc3nc2n(C(C)C)c1=NC(=O)c1cc2ccccc2o1`, the figure is active: 25%; as for `COc1ccc(CNC(=O)CN2C(=O)COc3ccc(S(=O)(=O)Nc4ccccc4)cc32)cc1`, inactive: 66%.

As for `O=C(c1ccccc1)n1nc(-c2ccccc2)nc1NCc1ccc(F)cc1`, the survival was active: 12%. As to `CCc1ccc(C(=O)c2cn(CC(=O)NC3CCCCC3)c3nc(C)ccc3c2=O)cc1`, the survival was inactive: 80%. As for `O=C(Nc1ccc(F)c(F)c1)c1cc(S(=O)(=O)NC2CCCCCC2)ccc1F`, the figure is inactive: 54%; as for `COc1ccc(-n2ccnc(NCc3ccccc3OC)c2=O)cc1`, inactive: 89%.

Turning to `CCOc1ccc(N2CC(NC(=O)/C=C\c3ccc4c(c3)OCO4)CC2=O)cc1` (configuration not stated), the survival was inactive: 79%. The value for `CNC(=O)c1c(NC(=O)c2ccc(S(=O)(=O)N3CCCCC3)cc2)sc2c1CCC2` was active: 0%; that for `CCc1ccc(Nc2nn(-c3ccc(OC(F)(F)F)cc3)nc2C(C)=O)cc1` was inactive: 92%; that for `Cc1ccc(-c2noc(CNS(=O)(=O)c3ccc(F)cc3)n2)cc1` was inactive: 81%. As for `COc1ccccc1N1CCN(C(=O)CN2C(=O)COc3ccc(S(=O)(=O)N4CCCCCC4)cc32)CC1`, the figure is inactive: 75%; as for `CCN(CC)c1ccc(NC(=O)c2cnc3c(-c4ccccc4)c(C)nn3c2C)c(C)c1`, inactive: 89%. The value for `CCOC(=O)c1ccccc1NC(=O)CSc1ccc(-c2cccs2)nn1` was inactive: 66%; that for `Cc1ccc2occ(CC(=O)N(Cc3ccc(Cl)cc3)C3CCS(=O)(=O)C3)c2c1` (configuration not stated) was inactive: 64%; that for `O=c1c2oc3ccccc3c2n(Cc2cccc(Cl)c2)c(=O)n1Cc1ccco1` was inactive: 72%.

For the compound `CCC(=O)N1N=C2CCCCC2C1(O)C(F)(F)F` (configuration not stated), the survival is inactive: 93%. As for `O=C(Cc1ccccc1)NC1CC(=O)N(c2ccccc2)C1` (configuration not stated), the figure is inactive: 87%; as for `CCOc1ccc(N(CC)S(=O)(=O)N2CCCC(C(=O)Nc3cc(Cl)ccc3C)C2)cc1` (configuration not stated), inactive: 78%. As for `O=C(Nc1cccc(OC(=O)c2ccco2)c1)c1ccccc1`, the figure is inactive: 58%. The value for `CC(C)COc1ccc(C2=NC(c3ccncc3)=Nc3ccc(F)cc3N2)cc1` was inactive: 113%. Consider `O=C(c1noc2c1CCCCC2)N1CCN(c2cccc(C(F)(F)F)c2)CC1`, for which the survival is active: 0%.

In the case of `COc1ccccc1CNc1nc2ccc(Cl)cc2n2cnnc12`, the survival was inactive: 114%. The value for `CC(C)c1ccc(NC(=O)c2cc(S(=O)(=O)N3CCCCC3)cn2C)cc1` was inactive: 92%; that for `CN1CCN(C(=O)Cn2c(-c3cccs3)cc3cc(Cl)ccc32)CC1` was inactive: 99%. Turning to `Cc1ccc(Cl)cc1N1CCN(C(=O)C2CCN(S(=O)(=O)c3cccc4nonc34)CC2)CC1`, the survival was inactive: 94%. As for `Cc1ccccc1OC(=O)CSc1nnc(-c2ccc3c(c2)OCO3)o1`, the figure is inactive: 101%; as for `Cc1cc2ccccc2n1CCNC(=O)c1cc(C(F)(F)F)cc(C(F)(F)F)c1`, inactive: 125%. The value for `Cn1nnc2c(N3CCN(c4ccccc4)CC3)ncnc21` was inactive: 74%; that for `COCCn1c(SCC(=O)c2ccc(C)cc2C)nc2cc(C(=O)NC3CCCC3)ccc2c1=O` was inactive: 126%.

With `O=C(Cn1nc(N2CCN(c3ccccc3)CC2)ccc1=O)Nc1ccc(F)cc1F`, the survival is inactive: 91%. As for `C/C=C/C(=O)Nc1nc2ccc(OC)cc2s1`, the figure is inactive: 81%; as for `COc1ccc(CNC(=O)C2CCCN(C(=O)N3CCOc4ccccc43)C2)cc1` (configuration not stated), inactive: 101%.

For `COc1cc(C2SC[C@H]3C(=O)N(c4ccccc4)C(=O)N23)cc(OC)c1OC` (some centres not stated), the survival was inactive: 75%.

In the case of `Cc1ccccc1-c1nc(CN2CCC(C(=O)NCCc3ccccc3)CC2)c(C)o1`, the survival is inactive: 81%. The value for `O=C(CCCn1c(=O)c2ccccc2n(CC(=O)Nc2cccc(C(F)(F)F)c2)c1=O)NCc1ccc2c(c1)OCO2` was inactive: 104%; that for `CCN(CC)CCNC(=O)c1ccc(CSc2nc3ccncc3n2Cc2cccc(F)c2)cc1` was inactive: 92%. As for `CC(C)(C)c1ccc(C(=O)N2CCC(c3nc(-c4ccc(S(=O)(=O)N5CCCC5)cc4)no3)CC2)cc1`, the figure is inactive: 79%; as for `CCCCN(CC)CCCNC(=O)Cn1ncc2c3ccccc3n(Cc3ccccc3F)c2c1=O`, inactive: 108%; as for `CCOc1ccc(-c2cc3c(=O)n(Cc4nc(-c5ccc(OC(C)C)cc5)oc4C)ccn3n2)cc1Cl`, inactive: 171%. The value for `CCOc1ccc(N2CC(NC(=O)c3ccc(S(=O)(=O)N4CCCC4)cc3)CC2=O)cc1` (configuration not stated) was inactive: 87%. As for `Cc1ccc(Cl)cc1NC(=O)Nc1nnc(N2CCCC(C)C2)s1` (configuration not stated), the survival is inactive: 72%. As for `COc1ccccc1CNC(=O)CCNS(=O)(=O)c1ccc2c(c1)CCCC(=O)N2`, the figure is inactive: 60%. As for `CCOC(=O)c1c(C)[nH]c(C)c1S(=O)(=O)NCC(=O)NCc1ccc(C)cc1`, the figure is inactive: 94%; as for `CCN(CC)S(=O)(=O)c1ccc2c(c1)nc(CN(C)C(=O)Nc1ccc(Cl)cc1)n2C`, inactive: 91%. The value for `COc1cccc(N2CCN(c3ncnc4c3c(-c3ccccc3)cn4-c3ccc(C)cc3)CC2)c1` was inactive: 99%.

With `O=C(NCc1cccn1Cc1ccccc1)Nc1ccc(Br)cc1F`, the survival was inactive: 66%.

The record behind these values is PubChem BioAssay AID463173 (ICCB-Longwood Screening Facility, Harvard Medical School, 2010).
